According to PMC4336329 (PLoS ONE, 2015):
The whole screen tested about 310,000 compounds, of which about 14,000 (4.5%) showed an effect of 50% or more. The effect is printed as a negative number. The list shows a part of the results.

target: human ether-à-go-go-related gene (hERG) potassium channel (human, UniProt Q12809); assay: primary screen, population patch clamp on CHO cells stably expressing hERG
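Also: peak tail current of the secondary pulse compared with the same well before compound.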

Sequence of human ether-à-go-go-related gene (hERG) potassium channel (Q12809 whole entry, looked up): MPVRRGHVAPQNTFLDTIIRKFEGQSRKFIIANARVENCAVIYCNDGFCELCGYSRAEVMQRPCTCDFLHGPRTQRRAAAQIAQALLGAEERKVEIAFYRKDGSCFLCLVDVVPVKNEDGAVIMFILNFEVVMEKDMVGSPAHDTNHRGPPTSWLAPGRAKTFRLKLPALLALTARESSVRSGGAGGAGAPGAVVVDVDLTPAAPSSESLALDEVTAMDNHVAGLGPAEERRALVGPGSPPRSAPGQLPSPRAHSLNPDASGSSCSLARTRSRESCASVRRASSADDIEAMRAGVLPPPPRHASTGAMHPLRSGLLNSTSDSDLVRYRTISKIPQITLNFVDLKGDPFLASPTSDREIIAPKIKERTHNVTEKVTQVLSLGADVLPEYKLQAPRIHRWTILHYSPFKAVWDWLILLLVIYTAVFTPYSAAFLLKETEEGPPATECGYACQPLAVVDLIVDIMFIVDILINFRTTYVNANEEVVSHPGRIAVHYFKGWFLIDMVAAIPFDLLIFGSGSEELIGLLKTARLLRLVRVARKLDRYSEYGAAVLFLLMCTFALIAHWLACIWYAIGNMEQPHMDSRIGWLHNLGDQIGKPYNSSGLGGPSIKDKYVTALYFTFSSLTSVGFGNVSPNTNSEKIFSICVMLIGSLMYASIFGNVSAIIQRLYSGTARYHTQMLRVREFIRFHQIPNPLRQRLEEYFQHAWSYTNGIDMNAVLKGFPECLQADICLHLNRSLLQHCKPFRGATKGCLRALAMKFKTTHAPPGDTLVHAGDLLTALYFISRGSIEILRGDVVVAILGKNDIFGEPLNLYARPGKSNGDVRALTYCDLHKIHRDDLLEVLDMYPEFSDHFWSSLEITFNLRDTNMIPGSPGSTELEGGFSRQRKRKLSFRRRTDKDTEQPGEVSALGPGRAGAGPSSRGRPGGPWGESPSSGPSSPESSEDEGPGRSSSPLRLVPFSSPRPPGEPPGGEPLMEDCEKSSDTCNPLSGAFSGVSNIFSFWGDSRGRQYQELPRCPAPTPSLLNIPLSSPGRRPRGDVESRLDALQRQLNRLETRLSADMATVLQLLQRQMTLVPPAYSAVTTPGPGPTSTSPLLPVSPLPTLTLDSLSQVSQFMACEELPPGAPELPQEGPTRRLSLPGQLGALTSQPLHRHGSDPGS

SMILES	hERG current change (%, negative = inhibition) at 10uM [%]
O=C(C1=C(O)C(=O)N(Cc2cccnc2)C1c1ccccn1)c1cccs1 (stereo not shown)	17.9
COc1ccccc1NC(=S)NCCc1ccc(OC)c(OC)c1	11.5
O=C(c1ccc(F)cc1)N1CCN(C(=O)c2ccc([N+](=O)[O-])cc2)CC1	-63.2
CC(NCc1ccc(OCc2ccc(Cl)cc2)cc1)C(O)c1ccccc1.Cl (stereo not shown)	-62.5
O=S(=O)(c1ccc(-c2csc(-c3cccnc3)n2)cc1)N1CCCC1	-4.98
CCN(C(=O)CN1C(=O)S/C(=C\C=C\c2ccccc2)C1=O)C1CCS(=O)(=O)C1 (stereo not shown)	15.3
CN(C)S(=O)(=O)c1cc(NC(=O)COC(=O)c2ccc3c(c2)OCO3)ccc1Cl	25
COc1ccc(-c2[nH]ncc2Oc2ccccc2OC)c(O)c1	-11.3
O=C(/C=C(/c1ccc(Cl)cc1)n1cncn1)c1ccccc1	-27.5
O=C(NCC1CCCO1)c1ccccc1NS(=O)(=O)c1ccc(F)cc1 (stereo not shown)	1.91
Cl.O=C(CS(=O)(=O)c1ccccc1)N(CCCN1CCOCC1)c1nc2c(F)cccc2s1	-44.9
O=[N+]([O-])c1cc([N+](=O)[O-])c(Oc2cc(F)cc(F)c2F)cc1NN1CCCCC1	15.1
COc1ccc(NC(=O)Nc2cccc(NC(C)=O)c2)c(OC)c1	23.5
CCOC(=O)[C@H]1[C@H]2COc3cc(OC)ccc3[C@@H]2N2C(=O)N(c3ccc(Br)cc3)C(=O)[C@@]12C	3.98
O=C(COc1ccc(S(=O)(=O)N2CCOCC2)cc1Cl)NCc1ccco1	-9.84
O=C(COC(=O)c1ccccc1[N+](=O)[O-])Nc1cc(S(=O)(=O)N2CCOCC2)ccc1N1CCCC1	-25.6
CC(/C=C/C1[C@H](C)C[C@H](O[C@@H]2O[C@H](CO)[C@@H](O)[C@H](O)[C@H]2O)CC1(C)C)O[C@H]1O[C@H](CO)[C@@H](O)[C@H](O)[C@H]1O (stereo partly shown)	6.99
O=C(CSc1nc2ccccc2o1)N1CCN(c2ccc(Cl)cc2)CC1	11.2
CCNc1[nH]c(=O)n(C)c(=O)c1N=O	12.5
CN(C)C(=O)CSc1nnc(Cc2ccccc2)n1CC1CCCO1 (stereo not shown)	20.3
COc1c2occc2c(OC)c2c(=O)cc(C(F)(F)C(F)(F)F)oc12	1.22
CC(=O)Nc1cccc(C(=O)OCC(=O)Nc2ccc(Cl)cn2)c1	17.4

SMILES	hERG current change (%, negative = inhibition) at 10uM [%]
CCOC(=O)C1(Cc2ccccc2Cl)CCN(S(C)(=O)=O)CC1	-0.757
O=C(Cc1ccc(Br)cc1)N1CCOCC1	13.6
CCc1nccn1S(=O)(=O)c1cc(OC)ccc1OC	2.62
O=C(c1ccc2nc(Cc3ccccc3F)oc2c1)N1CCCC1	14
CCc1ccc(CN(C)C(=O)c2cc(=O)c3ccccc3o2)cc1	-66.4
COc1ccc(C(=O)Nc2ccc(CN3CCS(=O)(=O)CC3)cc2)cc1	15
CC(=O)NN1C(=O)/C(=C/c2ccc(Br)o2)SC1=S	2.1
Cc1ccc(/C=N/n2c(-c3cccnc3)n[nH]c2=S)o1	6.56
COc1ccc(SCCN2CCN(CC(C)C)CCC2=O)cc1	-42.9
Nc1nc(Nc2ccccc2F)nc(NCc2ccco2)c1[N+](=O)[O-]	-6.47
COc1ccc(OCC(=O)NC(=S)Nc2ccc(N3CCOCC3)c(Cl)c2)cc1	1.48
Cc1cc(NC(=O)c2cc(-c3ccccc3Cl)nc3ccccc23)no1	-0.229
c1ccc2c(c1)CCN(c1ncnc3nc[nH]c13)C2	12.1
COc1ccc(OC)c(C(C)NC(=O)c2ccc(Br)cc2)c1 (stereo not shown)	0.479
Cc1cccc(NC(=O)C2(c3cccs3)CCOCC2)c1	-3.86
Oc1cccnc1Sc1cccc(C(F)(F)F)c1	18.6
CC[C@@H](C(=O)n1nc(C)cc1C)[C@H](NS(=O)(=O)c1ccc(C)cc1)c1ccccc1	6.96
NC(=O)C(CC(=O)O)NC(=O)[C@@H]1CCCNc2c(I)cc([N+](=O)[O-])cc2C(=O)N[C@@H](CO)C(=O)N[C@@H](Cc2ccc(O)cc2)C(=O)N1 (stereo partly shown)	8.02
CCC(CC)C(=O)c1c[nH]c(C(=O)N2CCN(c3ccc(OC)cc3)CC2)c1	-0.858
Cc1ccccc1OCC(O)CN1CCCCC1.Cl (stereo not shown)	9.68
Cc1ccccc1S(=O)(=O)Cc1ccc(C(=O)NCCN2CCCCC2C)o1 (stereo not shown)	-39.3
